{
  "source": "the supplement of paper PMC8728848",
  "binders": {"B1": {"name": "Gal 1 (Canis lupus) (protein)", "chain": "MACGLVASNLSLKPGQCLRVQCEVVPEAKSFVLNLGKDGDNLCLHFNPRFEAHGDVNTIVCNSKDGGAWGEELRESAFPFQPGTVTEVCISFDQADLTIKLPDGYTFKFPNRLNLEAISYLAADGDMKIKCLAFD"}},
  "experiment_in_all_cases": "glycan array binding signal (z-score within array); higher = stronger binding",
  "settings_in_all_cases": "glycan notation: IUPAC condensed, linker removed",
  "key": {"[1]": {"target": "GlcNAc6S(b1-3)Gal(b1-4)GlcNAc", "summary_of_the_method": "(§1)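 Negative Z-scores can be read as non-binding. The Z-score is calculated within each array and then averaged across arrays of one protein sequence at different concentrations or buffers and across linkers. Arrays, 3228 in all, were curated from the Consortium for Functional Glycomics database and kept only where the protein sequence was available.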"}, "[2]": {"target": "Kdn(a2-3)Gal(b1-3)GalNAc", "summary_of_the_method": "as §1"}, "[3]": {"target": "Kdn(a2-3)Gal(b1-3)GlcNAc", "summary_of_the_method": "as §1"}, "[4]": {"target": "Kdn(a2-3)Gal(b1-4)Glc", "summary_of_the_method": "as §1"}, "[5]": {"target": "Kdn(a2-3)Gal(b1-4)GlcNAc", "summary_of_the_method": "as §1"}, "[6]": {"target": "Kdn(a2-3)Gal(b1-4)[Fuc(a1-3)]GlcNAc", "summary_of_the_method": "as §1"}, "[7]": {"target": "Kdn(a2-6)Gal(b1-4)GlcNAc", "summary_of_the_method": "as §1"}, "[8]": {"target": "Man(a1-2)Man(a1-2)Man(a1-3)Man", "summary_of_the_method": "as §1"}, "[9]": {"target": "Man(a1-2)Man(a1-2)Man(a1-6)[Man(a1-3)]Man", "summary_of_the_method": "as §1"}, "[10]": {"target": "Man(a1-2)Man(a1-3)Man", "summary_of_the_method": "as §1"}, "[11]": {"target": "Man(a1-2)Man(a1-3)[Man(a1-2)Man(a1-6)]Man", "summary_of_the_method": "as §1"}, "[12]": {"target": "Man(a1-2)Man(a1-3)[Man(a1-2)Man(a1-6)]Man(a1-6)[Man(a1-2)Man(a1-2)Man(a1-3)]Man", "summary_of_the_method": "as §1"}, "[13]": {"target": "Man(a1-2)Man(a1-3)[Man(a1-2)Man(a1-6)]Man(a1-6)[Man(a1-2)Man(a1-2)Man(a1-3)]Man(b1-4)GlcNAc(b1-4)GlcNAc", "summary_of_the_method": "as §1"}, "[14]": {"target": "Man(a1-2)Man(a1-3)[Man(a1-6)]Man(a1-6)[Man(a1-2)Man(a1-3)]Man(b1-4)GlcNAc(b1-4)GlcNAc", "summary_of_the_method": "as §1"}, "[15]": {"target": "Man(a1-2)Man(a1-6)[Man(a1-3)]Man(a1-6)[Man(a1-2)Man(a1-2)Man(a1-3)]Man", "summary_of_the_method": "as §1"}, "[16]": {"target": "Man(a1-2)Man(a1-6)[Man(a1-3)]Man(a1-6)[Man(a1-2)Man(a1-2)Man(a1-3)]Man(b1-4)GlcNAc(b1-4)GlcNAc", "summary_of_the_method": "as §1"}, "[17]": {"target": "Man(a1-3)[Man(a1-6)]Man", "summary_of_the_method": "as §1"}, "[18]": {"target": "Man(a1-3)[Man(a1-6)]Man(a1-6)[Man(a1-2)Man(a1-3)]Man(b1-4)GlcNAc(b1-4)GlcNAc", "summary_of_the_method": "as §1"}, "[19]": {"target": "Man(a1-3)[Man(a1-6)]Man(a1-6)[Man(a1-3)]Man", "summary_of_the_method": "as §1"}, "[20]": {"target": "Man(a1-3)[Man(a1-6)]Man(a1-6)[Man(a1-3)]Man(b1-4)GlcNAc(b1-4)GlcNAc", "summary_of_the_method": "as §1"}, "[21]": {"target": "Man(a1-3)[Man(a1-6)]Man(b1-4)GlcNAc(b1-4)GlcNAc", "summary_of_the_method": "as §1"}, "[22]": {"target": "Man(a1-6)Man", "summary_of_the_method": "as §1"}, "[23]": {"target": "Man(b1-4)GlcNAc", "summary_of_the_method": "as §1"}, "[24]": {"target": "Neu5Ac(a2-3)Gal", "summary_of_the_method": "as §1"}, "[25]": {"target": "Neu5Ac(a2-3)Gal(b1-3)GalNAc", "summary_of_the_method": "as §1"}, "[26]": {"target": "Neu5Ac(a2-3)Gal(b1-3)GalNAc(b1-3)Gal(a1-4)Gal(b1-4)Glc", "summary_of_the_method": "as §1"}, "[27]": {"target": "Neu5Ac(a2-3)Gal(b1-3)GalNAc(b1-4)[Neu5Ac(a2-3)]Gal(b1-4)Glc", "summary_of_the_method": "as §1"}},
  "note": "This is one part of the list.",
  "data": [
    {"binder": "B1", "values": [
      {"measurement": "glycan array binding signal (z-score)", "setting": "[1]", "result": 0.006},
      {"measurement": "glycan array binding signal (z-score)", "setting": "[2]", "result": -0.309},
      {"measurement": "glycan array binding signal (z-score)", "setting": "[3]", "result": 0.313},
      {"measurement": "glycan array binding signal (z-score)", "setting": "[4]", "result": -0.303},
      {"measurement": "glycan array binding signal (z-score)", "setting": "[5]", "result": 0.013},
      {"measurement": "glycan array binding signal (z-score)", "setting": "[6]", "result": -0.319},
      {"measurement": "glycan array binding signal (z-score)", "setting": "[7]", "result": -0.302},
      {"measurement": "glycan array binding signal (z-score)", "setting": "[8]", "result": -0.33},
      {"measurement": "glycan array binding signal (z-score)", "setting": "[9]", "result": -0.323},
      {"measurement": "glycan array binding signal (z-score)", "setting": "[10]", "result": -0.306},
      {"measurement": "glycan array binding signal (z-score)", "setting": "[11]", "result": -0.319},
      {"measurement": "glycan array binding signal (z-score)", "setting": "[12]", "result": -0.331},
      {"measurement": "glycan array binding signal (z-score)", "setting": "[13]", "result": -0.334},
      {"measurement": "glycan array binding signal (z-score)", "setting": "[14]", "result": -0.334},
      {"measurement": "glycan array binding signal (z-score)", "setting": "[15]", "result": -0.329},
      {"measurement": "glycan array binding signal (z-score)", "setting": "[16]", "result": -0.336},
      {"measurement": "glycan array binding signal (z-score)", "setting": "[17]", "result": -0.331},
      {"measurement": "glycan array binding signal (z-score)", "setting": "[18]", "result": -0.337},
      {"measurement": "glycan array binding signal (z-score)", "setting": "[19]", "result": -0.338},
      {"measurement": "glycan array binding signal (z-score)", "setting": "[20]", "result": -0.304},
      {"measurement": "glycan array binding signal (z-score)", "setting": "[21]", "result": -0.318},
      {"measurement": "glycan array binding signal (z-score)", "setting": "[22]", "result": -0.336},
      {"measurement": "glycan array binding signal (z-score)", "setting": "[23]", "result": -0.316},
      {"measurement": "glycan array binding signal (z-score)", "setting": "[24]", "result": -0.316},
      {"measurement": "glycan array binding signal (z-score)", "setting": "[25]", "result": -0.316},
      {"measurement": "glycan array binding signal (z-score)", "setting": "[26]", "result": -0.33},
      {"measurement": "glycan array binding signal (z-score)", "setting": "[27]", "result": -0.296}
    ]}
  ]
}
